Results from publication PMC9732823, “Discovery of Dual Aβ/Tau Inhibitors and Evaluation of Their Therapeutic Effect on a Drosophila Model of Alzheimer’s Disease” (ACS Chemical Neuroscience, 2022).

Target: Aβ42 aggregates in Aβ42 Drosophila brains (Homo sapiens, UniProt P05067, E693G)
Test: Immunofluorescence of Aβ42 aggregates in adult fly brain
Type: in vivo, Drosophila melanogaster
Conditions: vs untreated flies, 15 days post-hatching, n=8
Text: Motivated by these positive results, we decided to study the ability of the most promising 22 to reduce the presence of amyloid plaques and aggregates in the brain of Aβ42 flies. Indeed, these flies are characterized by intracellular Aβ42 accumulation, followed by non-amyloid aggregates that resemble diffuse plaques.[56] Thus, the brains of treated and untreated flies, together with the control, were dissected and analyzed at 15 days post-hatching. […] Importantly, such deposits were nearly absent in the brains of Aβ42Drosophila flies treated with 22 (Figure 6C,D).
The dissection of each tissue analyzed was performed through the use of thin forceps in a dissection dish filled with 1% PBS solution, following a published protocol.[65] After fixation in PFA 4% (paraformaldehyde) for 20 min, the samples were cleaned from fat bodies and tracheal tube residues, in 1% PBS solution. In the end, they were moved to a 1.5 mL Eppendorf tube for the subsequent steps. The permeabilization of the membranes used PBS Triton (PBST) 0.3% solution, which is a detergent used also in tissue culture analysis. […] After washes in PBST for 20 min, each of the brains was stained with the secondary antibody (mouse FITC 1:250 Invitrogen #F2761). The samples were mounted in Fluoromount and the images were captured using a Leica confocal microscope, acquired with a 20× air objective, and a 60× mineral oil objective. […]

**Q.** For `CN(C)CCN1C(=O)S/C(=C\c2ccc3[nH]c4ccc(/C=C5\SC(=O)N(CCN(C)C)C5=O)cc4c3c2)C1=O` [Compound 22, (5Z,5′Z)-5,5′-((9H-Carbazole-3,6-diyl)bis(methanylylidene))bis(3-(2-(dimethylamino)ethyl)thiazolidine-2,4-dione)], which “reduction of aggregates in Aβ42 Drosophila adult brains” value is on record?
**A.** The value was 80%.
